Inconclusive means that the source gave no clear call. Such entries were picked first, then a sample of the others. Potencies of inconclusive entries are doubtful fits and often do not repeat. Calls of active or inactive are those of the source. Calls follow the shape of the dose curve; as a rule, active = well fitted inhibition curve with a large enough effect; inconclusive = small, poorly fitted or top-dose-only effect, or effect the other way, or another doubt; inactive = no such curve, though single readings can be large or run the other way.
Experiment: Confirmation Concentration-Response Assay for lipid storage modulators; also: nearly all actives have a fitted effect of over 80% in size;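 as to activity change, negative = inhibition: -100% = full block of lipid deposition by 20 µM Triacsin C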
Conditions: Drosophila S3 cells, lipid droplet BODIPY/CellTracker ratio, 18-24 h; activity change, negative = inhibition: at 46.1 µM (top of the series)
Outline: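 Cells at 5,000/well received compound as a titration plus oleic acid (added as 400 uM solution) and were incubated 18–24 h at 24 °C. BODIPY 493/503 lipid signal and CellTracker Red cell count were read by 488-nm laser-scanning cytometry. Activity was normalised to 20 uM Triacsin C.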
Potency is read from the fitted curve at half-maximal effect; tags tell the direction and shape of the fitted curve.

Structure (SMILES) | Potency | activity change, negative = inhibition
COc1ccc2[nH]c(C(=O)NCc3ccc4c(c3)OCO4)cc2c1 | inconclusive: 5.6 µM [activator, partial curve] | 
COc1ccc(CCNC(=O)CNC(=O)Cn2cnc3sc(C)c(C)c3c2=O)cc1OC | inconclusive: 17.7 µM [activator, partial curve, poor fit] | 
Cc1ccccc1C(=O)N1CCC(C(=O)Nc2ccc(S(=O)(=O)N3CCCCC3)cc2)CC1 |  | inactive: -14.9%
COc1ccc(N(CC(=O)Nc2cccnc2)S(=O)(=O)c2ccc(C)cc2)cc1Cl | inconclusive: 4.99 µM [activator, full curve, poor fit] | 
Cc1cc2ccccc2nc1SCC(=O)N1c2ccccc2CC1C (stereo not given) | inconclusive: 7.05 µM [activator, full curve] | 
c1csc(-c2nc3nc4ccccc4nc3n2Cc2ccc3c(c2)OCO3)c1 | inconclusive: 0.996 µM [activator, full curve] | 
COc1ccc(CCN(C)C(=O)c2cnc(C)cn2)cc1OC | inconclusive: 9.96 µM [activator, partial curve, poor fit] | 
COc1ccc(N2CCOCC2)c(NC(=O)c2ccc(Br)o2)c1 | inconclusive: 0.499 µM [activator, partial curve, poor fit] | 
Cc1nc(N)sc1C(=O)OCC(C)C | inconclusive: 14.1 µM [activator, partial curve] | 
COc1ccc(CCNC(=O)Cn2cnc3c(cnn3-c3ccccc3Cl)c2=O)cc1OC |  | inactive: -8%
COc1ccc(Cl)cc1NC(=O)CN(C)C(=O)CCCc1c[nH]c2ccccc12 | active: 22.3 µM | 
Cc1cc(N2CCN(Cc3ccccc3)CC2)n2nc(C)c(-c3ccccc3)c2n1 | inconclusive: 0.223 µM [activator, full curve, poor fit] | 
O=C(Nc1cc(C(F)(F)F)ccc1N1CCOCC1)c1cccnc1 | inconclusive: 0.996 µM [activator, full curve] | 
Cc1[nH]n(-c2ccccc2)c(=O)c1C(=O)Nc1ccccc1 |  | inconclusive: 96.7% [activator]
CCOc1ccc(CCNC(=O)COC(=O)C2CCN(c3ccc(C(F)(F)F)cn3)CC2)cc1OCC |  | inactive: -22.7%
COc1ccccc1NC(=O)Nc1ccc2c(c1)nnn2C | inconclusive: 0.888 µM [activator, full curve] | 
CCOc1ccc(NC(=O)NCCCn2c(C)nc3cc(C)c(C)cc32)cc1 | inconclusive: 3.97 µM [activator, full curve, poor fit] | 
CCOC(=O)c1c(C)[nH]c(C(=O)OCC(=O)NCCc2ccc(OCC)c(OCC)c2)c1C | active: 0.888 µM | 
Cc1cccc(C)c1NC(=O)C(NC(=O)c1ccccn1)c1ccc([N+](=O)[O-])cc1 (stereo not given) | inconclusive: 0.888 µM [activator, full curve] | 
CCN1CCCC1CNC(=O)C(=O)NCCc1ccc(OC)c(OC)c1 (stereo not given) |  | inactive: 33.3%
COc1ccc(-c2csc(N(CCc3ccc(OC)c(OC)c3)C(=O)COc3ccccc3)n2)cc1 | inconclusive: 1.12 µM [activator, full curve] | 
O=C(Cn1ncc2c3ccccc3n(Cc3ccccc3)c2c1=O)N1CCN(c2ncccn2)CC1 | inconclusive: 14.1 µM [activator, partial curve] | 
CCCOC(=O)c1[nH]c2c(c1C)C(=O)CC(c1ccc(OC)c(OC)c1)C2 (stereo not given) |  | inconclusive: 191% [activator]
COc1ccc(CCNC(=O)CSc2nnc(CNc3ccc(Cl)cc3)o2)cc1OC |  | inactive: 0.667%
COc1ccc(-c2csc(NC(=O)Cc3ccccc3F)n2)cc1OC | inconclusive: 0.281 µM [activator, full curve] | 
COc1ccc(CCNC(=O)CCCn2nc(C)n3ccnc3c2=O)cc1OC |  | inactive: 6%
COc1cc(C(C)=O)ccc1OCC(=O)Nc1ccccc1N1CCCC1 | inconclusive: 3.53 µM [activator, partial curve, poor fit] | 
O=C(NCC(c1cccs1)N1CCOCC1)c1cn(-c2ccccc2)nc1-c1ccc(Cl)cc1 (stereo not given) | inconclusive: 6.28 µM [activator, full curve] | 
COc1ccc2c(c1)O[C@@H](c1cccc(C(F)(F)F)c1)[C@H](OC(=O)NCCc1ccc(OC)c(OC)c1)C2=O | active: 4.99 µM | 
CCCN(Cc1cc2cc(C)ccc2[nH]c1=O)S(C)(=O)=O | inconclusive: 9.96 µM [activator, partial curve] | 
